Laboratory results as given in paper PMC4336329 (PLoS ONE, 2015).
Among all 310,000 compounds or so, about 2,200 (0.71%) showed an effect of 50% or more. Effects have a minus sign here. The list shows a part of the results.

target: human ether-à-go-go-related gene (hERG) potassium channel (human, UniProt Q12809); experiment: primary screen, population patch clamp on CHO cells stably expressing hERG
Sequence (Q12809 whole entry, looked up): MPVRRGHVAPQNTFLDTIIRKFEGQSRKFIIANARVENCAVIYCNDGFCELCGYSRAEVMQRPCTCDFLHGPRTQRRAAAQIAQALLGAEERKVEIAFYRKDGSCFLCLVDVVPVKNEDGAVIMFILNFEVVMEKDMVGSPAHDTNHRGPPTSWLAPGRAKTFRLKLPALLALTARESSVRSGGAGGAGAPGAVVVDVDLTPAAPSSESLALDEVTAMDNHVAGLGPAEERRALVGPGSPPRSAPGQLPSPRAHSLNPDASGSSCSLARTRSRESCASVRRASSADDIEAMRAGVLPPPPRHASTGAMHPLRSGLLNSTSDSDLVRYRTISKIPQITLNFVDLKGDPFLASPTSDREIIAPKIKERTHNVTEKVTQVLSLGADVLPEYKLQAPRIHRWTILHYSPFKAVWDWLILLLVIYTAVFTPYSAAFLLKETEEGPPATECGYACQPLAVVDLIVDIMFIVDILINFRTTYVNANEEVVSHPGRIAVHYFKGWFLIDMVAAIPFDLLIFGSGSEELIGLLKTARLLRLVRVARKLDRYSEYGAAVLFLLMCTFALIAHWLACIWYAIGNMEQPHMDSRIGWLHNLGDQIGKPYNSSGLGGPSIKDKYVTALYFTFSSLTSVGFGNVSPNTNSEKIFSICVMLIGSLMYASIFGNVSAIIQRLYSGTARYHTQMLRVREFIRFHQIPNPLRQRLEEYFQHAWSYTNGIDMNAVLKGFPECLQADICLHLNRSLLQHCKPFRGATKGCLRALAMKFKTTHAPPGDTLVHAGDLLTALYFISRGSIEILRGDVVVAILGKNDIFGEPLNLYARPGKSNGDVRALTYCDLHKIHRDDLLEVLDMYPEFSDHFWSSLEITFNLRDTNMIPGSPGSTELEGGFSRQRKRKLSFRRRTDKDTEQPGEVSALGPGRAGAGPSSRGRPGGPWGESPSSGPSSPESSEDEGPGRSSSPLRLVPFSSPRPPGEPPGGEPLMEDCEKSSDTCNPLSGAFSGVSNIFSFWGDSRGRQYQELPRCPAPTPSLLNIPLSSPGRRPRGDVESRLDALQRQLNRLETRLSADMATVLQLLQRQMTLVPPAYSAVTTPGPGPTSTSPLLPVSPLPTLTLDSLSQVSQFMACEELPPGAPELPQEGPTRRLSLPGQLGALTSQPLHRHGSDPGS

Compared with `Cc1cc(C)c(NC(=O)c2cc3c(nc4sccn43)s2)c(C)c1`, `Cc1cc(C)cc(N=C2NC(=O)/C(=C/c3cccs3)S2)c1` is lower in “hERG current change (%, negative = inhibition) at 1uM” value: 10.5% for the first, 9.05% for the second.

Going from `COc1ccc(CC(=O)N2CC(C)CC(C)C2)cc1` (stereo not shown) to `COc1ccc(/C=C/C(=O)C(C(N)=O)=C2SCCS2)cc1`, the “hERG current change (%, negative = inhibition) at 1uM” value falls from 1.74% to 1.22%.

Compared with `COc1ccc(NC(=O)CSc2ccc3ccccc3c2)cc1S(=O)(=O)N1CCCCC1`, `COc1ccc(S(=O)(=O)N2CCOCC2)cc1NC(=O)CSc1ccccc1` is lower in “hERG current change (%, negative = inhibition) at 1uM” value: 13.5% for the first, -6.94% for the second.

Compared with `Cc1ccc2c(c1)c(C)c(C)n2CC(O)CN1CCCCC1C` (stereo not shown), `CCn1cc(C(=O)NCCC2=CCCCC2)c(=O)c2cc(S(=O)(=O)N(C)C)ccc21` is lower in “hERG current change (%, negative = inhibition) at 1uM” value: -2.3% for the first, -5.95% for the second.

First: Cc1ccc(CNC(=O)CCC2CCCN(Cc3cccc4ncccc34)C2)o1 (stereo not shown)
Second: COc1cccc(CNC(=O)CCC2CCCN(C(=O)C3CCOCC3)C2)c1 (stereo not shown)
The “hERG current change (%, negative = inhibition) at 1uM” value of the first is higher: 4.33% for the first, 3.23% for the second.

First: O=C(Nc1cccc(-c2cscn2)c1)C1CCN(Cc2ccc(CO)o2)CC1
Second: COCCNC(=O)c1cccc(OC2CCN(Cc3ccc(F)c(OC)c3)CC2)c1
The “hERG current change (%, negative = inhibition) at 1uM” value of the first is higher: 7.16% for the first, 4.26% for the second.

Compared with `Cc1ccc(NN2C(=O)C=C(c3ccc(Cl)cc3)C2=O)cc1`, `CN(CC(=O)Nc1ccc(Cl)cc1)C(=O)CCNC(=O)c1ccc(Cl)cc1` is lower in “hERG current change (%, negative = inhibition) at 1uM” value: 12.8% for the first, -14.3% for the second.

First: Cc1cc(C)nc(-n2ncc3c2CCCC3=O)n1
Second: Cc1cc(NC(=O)CSc2nc(C(C)C)nc3sc(C)c(C)c23)no1
The “hERG current change (%, negative = inhibition) at 1uM” value of the first is lower: 14% for the first, 14.1% for the second.

Going from `O=C(CCC1CCCN(c2ncccn2)C1)N1CCN(c2ccccn2)CC1` (stereo not shown) to `O=C(NCc1ccccn1)C1CCCN(Cc2cnn(-c3ccccc3)c2-n2cccc2)C1` (stereo not shown), the “hERG current change (%, negative = inhibition) at 1uM” value falls from -0.0423% to -0.433%.

Going from `Cc1nc2c(=O)oc3ccccc3c2n1-c1ccccc1` to `Cc1c(-n2c(=S)[nH]c3ccccc3c2=O)c(=O)n(-c2ccccc2)n1C`, the “hERG current change (%, negative = inhibition) at 1uM” value rises from 6.98% to 12.3%.

Compared with `CNc1cc(CS(=O)c2ccccc2)nc(-c2ccccc2)n1` (stereo not shown), `O=C(Nc1ccccc1)c1ccc2nsnc2c1` is lower in “hERG current change (%, negative = inhibition) at 1uM” value: 15.4% for the first, -2.07% for the second.

Compared with `Cc1nn2cnnc2c(C)c1Cc1c(F)cccc1Cl`, `Cc1ccc(-c2cc(C(F)F)n3ncc(C(=O)Nc4c(C)nn(Cc5ccccc5Cl)c4C)c3n2)cc1` is higher in “hERG current change (%, negative = inhibition) at 1uM” value: 7.19% for the first, 9.38% for the second.

Compared with `Cc1ccc(S(=O)(=O)NC(=O)COc2ccccc2C)cc1`, `COc1ccc(S(=O)(=O)NCCCc2ccccc2)cc1` is lower in “hERG current change (%, negative = inhibition) at 1uM” value: 15.8% for the first, 7.61% for the second.

First: CCC(=O)N1CCc2cc(S(=O)(=O)CCC(=O)Nc3ccc(OC)c(OC)c3)ccc21
Second: COc1ccc(C(=O)N/C(=C/c2cccs2)C(=O)NN)cc1OC
The “hERG current change (%, negative = inhibition) at 1uM” value of the first is lower: 12.4% for the first, 14.2% for the second.

Compared with `Cc1ccccc1C(=O)Nc1ccc(O)cc1C(=O)O`, `CC(=O)Nc1ccccc1OCc1nnc(-c2cccs2)o1` is higher in “hERG current change (%, negative = inhibition) at 1uM” value: 8.33% for the first, 15.1% for the second.

First: C/C(C=O)=C/c1ccccc1
Second: CC(C)Oc1ccccc1NC(=O)CSc1nccn1C
The “hERG current change (%, negative = inhibition) at 1uM” value of the first is lower: 9.01% for the first, 12.8% for the second.

First: Cc1c(C)c2ccc(OCC(=O)N[C@@H](Cc3c[nH]c4ccccc34)C(=O)O)cc2oc1=O
Second: O=C(CN1C(=O)NC(Cc2c[nH]c3ccccc23)C1=O)NCCc1ccccc1 (stereo not shown)
The “hERG current change (%, negative = inhibition) at 1uM” value of the first is lower: 7.31% for the first, 13.1% for the second.

Compared with `COc1ccc(/C=N/N2CCOCC2)cc1Cn1cc([N+](=O)[O-])cn1`, `O=C(NCCSCc1ccccc1)c1ccc(Cl)c(S(=O)(=O)N2CCOCC2)c1` is lower in “hERG current change (%, negative = inhibition) at 1uM” value: 9.4% for the first, -0.515% for the second.

Going from `CC(OC(=O)CCC(=O)c1ccc(F)cc1)C(=O)NC1CCCCC1C` (stereo not shown) to `O=C(C1CC1)N1CCN=C1SCc1ccc(F)cc1`, the “hERG current change (%, negative = inhibition) at 1uM” value falls from 12.7% to 7.65%.

Going from `O=C(Cn1c(=O)n(Cc2ccc3c(c2)OCO3)c(=O)c2ccccc21)N1CCCc2ccccc21` to `COc1ccccc1C1c2[nH]c3ccccc3c2CCN1Cc1ccc(NC(C)=O)s1` (stereo not shown), the “hERG current change (%, negative = inhibition) at 1uM” value falls from 9.38% to 5.99%.

Compared with `Cc1onc(-c2c(Cl)cccc2Cl)c1C(=O)Nc1nc(C(C)(C)C)cs1`, `CCc1noc(C)c1C(=O)Nc1ccc(C#N)cc1` is lower in “hERG current change (%, negative = inhibition) at 1uM” value: 16.1% for the first, 1.59% for the second.

First: COc1ccc(COc2cc(-c3cccc(OC)c3)nc3ccc(NC(C)=O)cc23)cc1
Second: COc1ccc(Cn2c(O)c(C=Nc3ccc(C)cc3)c3ccccc3c2=O)cc1
The “hERG current change (%, negative = inhibition) at 1uM” value of the first is higher: 6.89% for the first, -7.11% for the second.

First: CC12CCC(c3nnc(SCc4ccc(Cl)cc4)nc31)C2(C)C (stereo not shown)
Second: CCc1ccc2c(c1)c1nnc(NN)nc1n2CC
The “hERG current change (%, negative = inhibition) at 1uM” value of the first is lower: 7.3% for the first, 7.94% for the second.

Compared with `CN1CCN(C2=Cc3ccc(Cl)cc3Sc3ccc(F)cc32)CC1.CS(=O)(=O)O.O`, `Cn1c(C(=O)NC2CCCCCC2)cc2c(=O)n(C)c3ccccc3c21` is lower in “hERG current change (%, negative = inhibition) at 1uM” value: 11.5% for the first, 9.46% for the second.

Going from `CC(C)=C1C2CCC1C(C(=O)Nc1cc(C)cc(C)c1)C2C(=O)O` (stereo not shown) to `O=C(Nc1nncs1)C1CCCC1`, the “hERG current change (%, negative = inhibition) at 1uM” value rises from 14.1% to 16.7%.

First: O=c1[nH]c2ccccc2n1Cc1ccc(F)cc1
Second: O=C(COC(=O)c1ccc(S(=O)(=O)NCc2ccco2)cc1)NCc1ccc(F)cc1
The “hERG current change (%, negative = inhibition) at 1uM” value of the first is higher: 6.71% for the first, 1.83% for the second.

First: CCc1c(C)c2cc(Cl)c(O)c(CN3CCCC3)c2oc1=O
Second: O=C(NCCN1CCOCC1)C(=O)NCC1CCCO1 (stereo not shown)
The “hERG current change (%, negative = inhibition) at 1uM” value of the first is higher: 13.2% for the first, 1.85% for the second.

Going from `CCN(C(=O)COC(=O)c1c(-c2ccccc2)noc1C)c1c(N)n(Cc2ccccc2)c(=O)[nH]c1=O` to `Cc1cc(-c2nc3ncccc3o2)ccc1NC(=S)NC(=O)C(C)C`, the “hERG current change (%, negative = inhibition) at 1uM” value falls from 10.7% to -0.865%.

Going from `COc1ccc(Nc2nccc(OC)c2C#N)cc1` to `COc1cccc(/C=C/c2ccncc2)c1OC.Cl`, the “hERG current change (%, negative = inhibition) at 1uM” value rises from -20.1% to 6.25%.
